In one assay the test system is HSkMC. In words: cytotoxicity call (relative viability < 0.9). The note with it: 10 µM.
For the next assay, the system named is HepG2. Briefly: cytotoxicity call (relative viability < 0.9). The note with it: 10 µM.
A further assay has as its system S. aureus RN4220. Briefly: growth inhibition call (relative growth <= 0.2). Conditions: 50 µM.

The list shows a part of the results.

Turning to `C[C@H]1CN([C@@H](C)CO)C(=O)c2cccc(NC(=O)NC3CCCCC3)c2O[C@H]1CN(C)Cc1ccc(-c2ccccc2)cc1`, the cytotoxicity call in the assay with HSkMC and with HepG2 was “inactive” in each case. In addition, the growth inhibition call in the assay with S. aureus RN4220 was “inactive”.
As to `CC(C)NC(=O)Nc1ccc2c(c1)CC(=O)N([C@H](C)CO)C[C@H](C)[C@@H](CN(C)S(=O)(=O)c1ccccc1)O2`, the cytotoxicity call in the assay with HSkMC and in the assay with HepG2 was “inactive” each time. For the same molecule, the growth inhibition call with S. aureus RN4220 is “inactive”.
`COc1ccc(-c2nc3cc(C4=NNC(=O)CC4C)ccc3[nH]2)cc1` (centres undefined): the cytotoxicity call with HSkMC and in the assay with HepG2 was “inactive” throughout. Also, in the assay with S. aureus RN4220, the growth inhibition call was “inactive”.
For `CCc1ccc(/C=C2\SC(=O)N(CCCCCCNC(=O)c3ccc(Nc4ccc([N+](=O)[O-])c5nonc45)cc3)C2=O)cc1`, the cytotoxicity call in the assay on HSkMC and in the assay on HepG2 was “inactive” each time. In addition, in the assay on S. aureus RN4220, the growth inhibition call was “inactive”.
Regarding `C[C@@H]1CN([C@@H](C)CO)C(=O)c2cccc(NC(=O)C3CCOCC3)c2O[C@H]1CN(C)S(=O)(=O)c1cccs1`, the cytotoxicity call in the assay with HSkMC and with HepG2 was “inactive” throughout. In addition, the growth inhibition call with S. aureus RN4220 is “inactive”.
Regarding `Cc1noc(C)c1S(=O)(=O)Nc1cccc2c1O[C@@H](CN(C)Cc1ccccc1)[C@@H](C)CN([C@@H](C)CO)C2=O`, the cytotoxicity call in the assay with HSkMC and with HepG2 was “inactive” in each case. In addition, the growth inhibition call with S. aureus RN4220 is “inactive”.
As to `C[C@H]1CCCCO[C@@H](CN(C)Cc2ccc3c(c2)OCO3)[C@@H](C)CN([C@@H](C)CO)C(=O)c2cc(NC(=O)Nc3ccc(C(F)(F)F)cc3)ccc2O1`, the cytotoxicity call with HSkMC and with HepG2 was “active” each time. In the assay on S. aureus RN4220, the growth inhibition call was “inactive”.
For the molecule `C[C@@H]1CCCCO[C@H](CN(C)C(=O)Nc2ccc3c(c2)OCO3)[C@H](C)CN([C@H](C)CO)C(=O)c2cc(NC(=O)c3ccccc3)ccc2O1`, the cytotoxicity call with HSkMC and in the assay on HepG2 was “inactive” in each case. The growth inhibition call with S. aureus RN4220 was “inactive”.
Regarding `COc1cc(O)c2c(=O)c(O)c(-c3ccccc3)oc2c1`, the cytotoxicity call in the assay with HSkMC and in the assay on HepG2 was “inactive” throughout. Also, the growth inhibition call in the assay with S. aureus RN4220 was “inactive”.
On to `COc1ccc([C@H]([C@@H](O)Cc2ccccc2)N(C[C@H](/C=C/c2ccccc2)NC(=O)C(Cl)(Cl)Cl)[C@@H](Cc2ccccc2)C(OC)OC)cc1`, for which the cytotoxicity call in the assay with HSkMC and with HepG2 was “inactive” each time. Further, the growth inhibition call with S. aureus RN4220 is “inactive”.
For the molecule `C[C@H]1CN([C@@H](C)CO)C(=O)Cc2cc(NC(=O)Nc3ccc(C(F)(F)F)cc3)ccc2O[C@@H]1CN(C)C(=O)Nc1ccc(F)cc1`, the cytotoxicity call with HSkMC and with HepG2 was “inactive” each time. For the same molecule, the growth inhibition call with S. aureus RN4220 was “inactive”.
Take `C[C@@H]1CN([C@@H](C)CO)C(=O)c2c(c3ccccc3n2C)-c2ccccc2CO[C@@H]1CN(C)C(=O)Nc1ccc2c(c1)OCO2`: the cytotoxicity call in the assay on HSkMC and with HepG2 was “inactive” in each case. Also, the growth inhibition call in the assay on S. aureus RN4220 was “inactive”.
Turning to `CCS(=O)(=O)Nc1ccc2c(c1)C(=O)N(C)[C@@H]1CC[C@H](CC(=O)N[C@@H]3CCN(Cc4ccccc4)C3)O[C@@H]1CO2`, the cytotoxicity call in the assay on HSkMC and with HepG2 was “inactive” in each case. Moreover, the growth inhibition call in the assay with S. aureus RN4220 is “inactive”.
Take `CCCCCCCCCCC[C@@H](N=O)c1cc(C)ccc1O`: the cytotoxicity call in the assay on HSkMC and in the assay with HepG2 was “inactive” throughout. The growth inhibition call in the assay on S. aureus RN4220 was “inactive”.
For `Cc1noc(C)c1NC(=O)Nc1cccc2c1O[C@H](CN(C)Cc1ccc(Oc3ccccc3)cc1)[C@H](C)CN([C@H](C)CO)C2=O`, the cytotoxicity call with HSkMC and in the assay with HepG2 was “inactive” throughout. The growth inhibition call with S. aureus RN4220 was “inactive”.
For `N#C/C(=N\O)C(=O)c1ccco1`, the cytotoxicity call in the assay on HSkMC and in the assay with HepG2 was “inactive” each time. Further, in the assay on S. aureus RN4220, the growth inhibition call is “inactive”.
With `OCc1ccc2nccn2c1`, the cytotoxicity call in the assay with HSkMC and in the assay on HepG2 was “inactive” in each case. In addition, the growth inhibition call with S. aureus RN4220 is “inactive”.
`C[C@@H]1CCCCO[C@@H](CN(C)Cc2ccncc2)[C@@H](C)CN([C@H](C)CO)C(=O)c2cc(NC(=O)c3ccccc3)ccc2O1`: the cytotoxicity call in the assay on HSkMC and in the assay with HepG2 was “inactive” throughout. The growth inhibition call in the assay on S. aureus RN4220 is “inactive”.
As for `C[C@H]1CN([C@@H](C)CO)C(=O)c2cccc(NC(=O)c3cnccn3)c2O[C@H]1CN(C)C(=O)NC1CCCCC1`, the cytotoxicity call in the assay with HSkMC and in the assay on HepG2 was “inactive” throughout. Besides, the growth inhibition call with S. aureus RN4220 was “inactive”.
As to `Cc1noc(C)c1NC(=O)N(C)C[C@H]1Oc2ccc(NC(=O)Nc3ccc(C(F)(F)F)cc3)cc2C(=O)N([C@@H](C)CO)C[C@H]1C`, the cytotoxicity call in the assay on HSkMC and with HepG2 was “inactive” throughout. Also, the growth inhibition call in the assay with S. aureus RN4220 was “inactive”.
`C[C@@H]1CCCCO[C@@H](CN(C)C(=O)Nc2ccccc2)[C@@H](C)CN([C@@H](C)CO)C(=O)c2cc(NC(=O)Cc3ccccc3)ccc2O1`: the cytotoxicity call with HSkMC and in the assay on HepG2 was “inactive” throughout. Also, the growth inhibition call in the assay on S. aureus RN4220 is “inactive”.
Consider `C[C@@H]1CN([C@@H](C)CO)S(=O)(=O)c2ccc(C#CC(C)(C)O)cc2O[C@@H]1CN(C)Cc1ccccc1`, for which the cytotoxicity call with HSkMC and in the assay with HepG2 was “inactive” each time. Moreover, the growth inhibition call in the assay on S. aureus RN4220 was “inactive”.
Take `Cc1noc(C)c1NC(=O)N(C)C[C@@H]1OCCCC[C@@H](C)Oc2ccc(NS(=O)(=O)c3cccs3)cc2C(=O)N([C@H](C)CO)C[C@@H]1C`: the cytotoxicity call in the assay with HSkMC and in the assay on HepG2 was “inactive” each time. Further, the growth inhibition call in the assay on S. aureus RN4220 is “inactive”.
With `C[C@@H]1CN([C@@H](C)CO)C(=O)c2cc(NS(=O)(=O)c3ccc(F)cc3)ccc2O[C@@H](C)CCCCO[C@@H]1CN(C)Cc1ccc2c(c1)OCO2`, the cytotoxicity call with HSkMC and with HepG2 was “inactive” throughout. Also, the growth inhibition call with S. aureus RN4220 is “inactive”.
As to `COc1ccc(-c2noc(CSc3nc4sc(C)c(C)c4c(=O)n3-c3ccccc3)n2)cc1OC`, the cytotoxicity call with HSkMC and in the assay with HepG2 was “inactive” each time. Also, the growth inhibition call in the assay on S. aureus RN4220 is “inactive”.
Take `O=C(C[C@@H]1CC=CCC[C@@H](Cc2ccc(F)cc2)C(=O)OC[C@@H](Cc2c[nH]c3ccccc23)NC1=O)N[C@H](CO)Cc1ccccc1`: the cytotoxicity call in the assay on HSkMC (human skeletal muscle cells) and with HepG2 was “active” throughout. In addition, in the assay with S. aureus RN4220, the growth inhibition call was “inactive”.
Consider `Cc1noc(C)c1NC(=O)N(C)C[C@H]1Oc2c(NC(=O)c3ccc(-c4nccs4)cc3)cccc2C(=O)N([C@@H](C)CO)C[C@H]1C`, for which the cytotoxicity call with HSkMC and with HepG2 was “inactive” each time. Moreover, in the assay on S. aureus RN4220, the growth inhibition call is “inactive”.
As to `Cc1ccc(S(=O)(=O)Nc2cccc3c2O[C@H](CN(C)S(=O)(=O)c2cn(C)cn2)[C@@H](C)CN([C@@H](C)CO)C3=O)cc1`, the cytotoxicity call with HSkMC and with HepG2 was “inactive” throughout. In the assay on S. aureus RN4220, the growth inhibition call was “inactive”.

The values above are taken from the antibiotic and cytotoxicity screens of Wong et al. (2023).
